Test results taken from patent US20250382384A1 (BEONE MEDICINES I, published 2025).

What was measured:
HMFG1 [1] = assay: competitive FACS: soluble MUC1 titrated against 3 µg/ml antibody binding to human MUC1 expressing cells
HMFG1 [2] = assay: competitive FACS: soluble MUC1 titrated against 0.3 µg/ml antibody binding to human MUC1 expressing cells
HMFG1 [3] = assay: as above; remark: listed apart in the source

Chain of HMFG1 (VH, as listed by the source, chain 1 of 2): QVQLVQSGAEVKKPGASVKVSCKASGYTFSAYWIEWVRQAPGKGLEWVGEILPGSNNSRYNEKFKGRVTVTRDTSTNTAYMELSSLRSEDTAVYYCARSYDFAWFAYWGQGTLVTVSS
Chain of HMFG1 (VL, as listed by the source, chain 2 of 2): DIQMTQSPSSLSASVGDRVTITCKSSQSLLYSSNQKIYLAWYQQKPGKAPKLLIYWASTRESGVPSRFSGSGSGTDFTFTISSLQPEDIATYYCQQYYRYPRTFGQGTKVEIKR

B1: soluble MUC1 (Shanghai Linc-Bio Science Co. LTD) (other)
chain: not shown
For B1, the “IC50 (read off the curve)” value (HMFG1 [1]) was roughly 30 U/mL, the “IC50 (read off the curve)” value (HMFG1 [2]) was roughly 5 U/mL and the “IC50 (read off the curve)” value (HMFG1 [3]) was roughly 5 U/mL.
